In the supplement of paper PMC9446081:
Among all 39,000 compounds or so, about 220 (0.56%) showed activity. Some of the results follow.

test system: Escherichia coli K-12 BW25113; assay: relative growth (OD600 normalised to plate interquartile mean) (fraction); higher = less growth inhibition, active = 0.2 or less; conditions: 50 µM; LB; incubation time: overnight (16-24 h)
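Also: static incubation at 37 °C against the wild-type strain, values averaged over two biological replicates.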

SMILES | relative growth
C[C@@H]1CN([C@@H](C)CO)S(=O)(=O)c2ccc(C#C[C@@H](C)O)cc2O[C@@H]1CN(C)C(=O)c1ccccc1 | inactive: 0.981
C[C@@H]1CN([C@@H](C)CO)C(=O)c2cccc(NS(=O)(=O)c3cccs3)c2O[C@@H]1CN(C)Cc1ccncc1 | inactive: 0.97
Cc1ccc(S(=O)(=O)Nc2cccc3c2O[C@@H](CN(C)S(=O)(=O)c2cccs2)[C@H](C)CN([C@@H](C)CO)C3=O)cc1 | inactive: 1.01
C[C@@H]1CCCCO[C@@H](CN(C)C(=O)Nc2cccc3ccccc23)[C@H](C)CN([C@@H](C)CO)C(=O)c2cc(NC(=O)CCC(F)(F)F)ccc2O1 | inactive: 1
COc1cccc(S(=O)(=O)N(C)C[C@@H]2Oc3ncc(C#CCN(C)C)cc3C(=O)N([C@H](C)CO)C[C@@H]2C)c1 | inactive: 1.02
Cc1noc(C)c1S(=O)(=O)Nc1ccc2c(c1)CC(=O)N([C@@H](C)CO)C[C@@H](C)[C@@H](CN(C)S(=O)(=O)c1cccs1)O2 | inactive: 1.02
COc1ccc([Si](C)(C)[C@H]2[C@H](CCn3cc([C@H](O)c4ccccc4)nn3)O[C@@]3(C(=O)N(Cc4cccc(N5C(=O)c6cccc7cccc5c67)c4)c4ccccc43)[C@@H]2C)cc1 | inactive: 1.01
COCC#Cc1cnc2c(c1)C(=O)N([C@@H](C)CO)C[C@@H](C)[C@H](CN(C)C(=O)c1cnccn1)O2 | inactive: 1.01
C[C@@H]1CCCCO[C@H](CN(C)C(=O)C2CCCCC2)[C@H](C)CN([C@H](C)CO)C(=O)c2cc(NS(=O)(=O)c3ccccc3)ccc2O1 | inactive: 1.04
C[C@H](CO)N1C[C@H](C)[C@@H](CN(C)CC2CCCCC2)OCCCC[C@H](C)Oc2ccc(NC(=O)CCC(F)(F)F)cc2C1=O | inactive: 0.986
C[C@H]1CN([C@@H](C)CO)C(=O)c2cccc(NC(=O)CCCCCC(=O)Nc3ccccc3N)c2O[C@H]1CN(C)CC1CCCCC1 | inactive: 0.995
COc1ccc(NC(=O)N(C)C[C@@H]2Oc3c(NC(=O)Nc4cccc5ccccc45)cccc3C(=O)N([C@@H](C)CO)C[C@H]2C)cc1 | inactive: 0.987
C[C@@H]1CN([C@@H](C)CO)C(=O)c2cc(NC(=O)C3CCCCC3)ccc2O[C@@H](C)CCCCO[C@H]1CN(C)C(=O)c1ccccc1 | inactive: 0.972
O=S(=O)(c1cccc2cnccc12)N1CCCNCC1 | inactive: 1.17
CC(=O)OC[C@H]1O[C@@H](NC(N)=O)[C@H](OC(C)=O)[C@@H](OC(C)=O)[C@@H]1OC(C)=O | inactive: 0.997
O=C([C@H]1CCCCN1)N1CCCC1 | inactive: 1
CN1CCC(=C2c3ccccc3CC(=O)c3sccc32)CC1.O=C(O)C=CC(=O)O | inactive: 1.03
C[C@@H]1CN([C@H](C)CO)S(=O)(=O)c2ccc(C#CC(C)(C)O)cc2O[C@H]1CN(C)Cc1ccccc1 | inactive: 1.02
Cc1noc(C)c1S(=O)(=O)Nc1ccc2c(c1)C(=O)N([C@H](C)CO)C[C@H](C)[C@H](CN(C)C(=O)Nc1ccc3c(c1)OCO3)O2 | inactive: 0.993
C[C@@H]1CCCCO[C@H](CN(C)C(=O)Nc2ccc(F)cc2)[C@@H](C)CN([C@@H](C)CO)C(=O)c2cc(NC(=O)NC3CCCCC3)ccc2O1 | inactive: 1.01

SMILES | relative growth
COc1ccc(NC(=O)Nc2ccc3c(c2)[C@H]2C[C@H](CC(=O)NCc4ccccn4)O[C@H](CO)[C@H]2O3)cc1 | inactive: 0.995
C[C@@H]1CN([C@H](C)CO)C(=O)c2cc(NS(=O)(=O)c3ccc(F)cc3)ccc2O[C@@H](C)CCCCO[C@@H]1CN(C)C(=O)CCC(F)(F)F | inactive: 0.988
CC(=O)C=C(O)CCC(=O)O | inactive: 0.91
CS(=O)(=O)N1C[C@@H](O)COC[C@@H]2O[C@H](CC(=O)NCc3ccccc3)CC[C@H]21 | inactive: 0.998
COc1ccc(S(=O)(=O)Nc2cccc3c2O[C@H](CN(C)S(=O)(=O)c2ccc(C)cc2)[C@@H](C)CN([C@@H](C)CO)C3=O)cc1 | inactive: 0.967
C[C@H]1COC(=O)[C@@H](NC(=O)OCC2c3ccccc3-c3ccccc32)CC/C=C/C[C@H](CC(=O)N(CCOC(=O)NCCCCCC(=O)NO)Cc2ccccc2)C(=O)N1 | inactive: 1.07
CC(=O)NCC(=O)NS(=O)(=O)c1ccccc1 | inactive: 1
O=C(C[C@H]1C[C@@H]2c3cc(NC(=O)C4CCOCC4)ccc3O[C@@H]2[C@H](CO)O1)NCc1ccc(Cl)cc1 | inactive: 0.986
C[C@@H]1CN([C@H](C)CO)S(=O)(=O)c2ccc(C#Cc3ccccc3)cc2O[C@@H]1CN(C)C(=O)Cc1ccccn1 | inactive: 0.977
C[C@@H]1CN([C@H](C)CO)C(=O)c2cc(C#Cc3ccccc3F)cnc2O[C@H]1CN(C)C(=O)Cc1ccncc1 | inactive: 0.975
Cc1noc(C)c1S(=O)(=O)Nc1ccc2c(c1)C(=O)N([C@@H](C)CO)C[C@H](C)[C@H](CN(C)C(=O)Nc1ccc(C(F)(F)F)cc1)OCCCC[C@H](C)O2 | inactive: 0.98
COc1ccc([C@@H]([C@H](Cc2ccccc2)OC(C)=O)N2C[C@@H](NC(=O)C(Cl)(Cl)Cl)[C@@H]3[C@H]([C@@H]2Cc2ccccc2)N(C)O[C@H]3c2ccccc2)cc1 | inactive: 1.02
COc1ccc(NC(=O)N(C)C[C@H]2OCCCC[C@H](C)Oc3ccc(NC(=O)NC4CCCCC4)cc3C(=O)N([C@@H](C)CO)C[C@@H]2C)cc1 | inactive: 1.05
Cc1noc(C)c1NC(=O)N(C)C[C@H]1OCCCC[C@H](C)Oc2ccc(NC(=O)NC3CCCCC3)cc2C(=O)N([C@@H](C)CO)C[C@@H]1C | inactive: 0.994
O=C(C[C@H]1CC[C@H]2[C@@H](COC[C@H](O)CN2S(=O)(=O)c2ccccc2)O1)NCc1ccc2c(c1)OCO2 | inactive: 0.973
COc1c(C)cnc2c1c(=O)n(CC#N)c(=O)n2C | inactive: 0.985
C[C@@H]1CN([C@@H](C)CO)C(=O)CCCn2nncc2CO[C@@H]1CN(C)C(=O)Nc1cccc(Oc2ccccn2)c1 | inactive: 1.02
CCc1nn(CCCN2CCN(c3cccc(Cl)c3)CC2)c(=O)n1CCOc1ccccc1 | inactive: 1.2
C[C@H]1CCCCO[C@H](CN(C)C(=O)Nc2ccc3c(c2)OCO3)[C@@H](C)CN([C@@H](C)CO)C(=O)c2cc(NC(=O)Nc3cccc4ccccc34)ccc2O1 | inactive: 1
CN(C)Cc1ccc(O)c(CN(C)C)n1 | inactive: 0.979

SMILES | relative growth
C[C@@H]1CN([C@H](C)CO)S(=O)(=O)c2ccc(-c3cccc(C#N)c3)cc2O[C@H]1CN(C)C(=O)c1cccnc1 | inactive: 0.997
C[C@@H]1CN([C@H](C)CO)C(=O)c2cc(NC(=O)Nc3ccccc3)ccc2O[C@@H]1CN(C)S(=O)(=O)c1cn(C)cn1 | inactive: 1.01
COc1ccc(S(=O)(=O)N(C)C[C@@H]2Oc3ccc(N(C)C)cc3CC(=O)N([C@@H](C)CO)C[C@@H]2C)cc1 | inactive: 0.97
Cc1ccc(S(=O)(=O)Nc2ccc3c(c2)C(=O)N([C@@H](C)CO)C[C@H](C)[C@@H](CN(C)S(=O)(=O)c2ccc(C)cc2)OCCCC[C@H](C)O3)cc1 | inactive: 1.03
C[C@H](CO)N1C[C@H](C)[C@@H](CN(C)C(=O)CCCN(C)C)OCCCC[C@H](C)Oc2ccc(NC(=O)Nc3ccc(F)cc3)cc2C1=O | inactive: 0.989
Cc1noc(C)c1NC(=O)N(C)C[C@@H]1OCCCC[C@@H](C)Oc2ccc(NS(=O)(=O)c3cccs3)cc2C(=O)N([C@@H](C)CO)C[C@H]1C | inactive: 1.01
C[C@H]1CCCCO[C@H](CN(C)C(=O)C2CCCCC2)[C@@H](C)CN([C@@H](C)CO)C(=O)c2cc(NC(=O)NC3CCCCC3)ccc2O1 | inactive: 1.02
C[C@H]1CN([C@@H](C)CO)C(=O)Cc2cc(NC(=O)Nc3cccc4c3CCCC4)ccc2O[C@H]1CN(C)S(=O)(=O)c1ccc(Oc2ccccc2)cc1 | inactive: 1.03
COc1ccc(NC(=O)Nc2ccc3c(c2)C(=O)N([C@H](C)CO)C[C@H](C)[C@H](CN(C)Cc2ccccc2)OCCCC[C@@H](C)O3)cc1 | inactive: 0.972
O=c1ccc(-c2ccncc2)n[nH]1 | inactive: 0.957
[N-]=[N+]=Nc1ccccc1C[C@@]1(C(=O)NCc2ccccc2)N=C(c2ccc(OCCCO)cc2)O[C@@H]1c1ccccc1 | inactive: 1.01
CCCNC(=O)N1C[C@]2(CN(C2)S(=O)(=O)c2cccc(c2)OC)c2c(n(c3cc(ccc23)OC)C)[C@@H]1CO | inactive: 1.01
COc1ccc(NC(=O)Nc2cccc3c2O[C@H](CN(C)C(=O)Nc2ccc(C(F)(F)F)cc2)[C@@H](C)CN([C@H](C)CO)C3=O)cc1 | inactive: 0.837
C[C@H](CO)N1C[C@H](C)[C@@H](CN(C)Cc2ccc3c(c2)OCO3)Oc2ccc(NC(=O)CCN3CCOCC3)cc2C1=O | inactive: 0.99
CCCNC(=O)N(C)C[C@H]1Oc2cc(C#Cc3ccccn3)ccc2S(=O)(=O)N([C@@H](C)CO)C[C@H]1C | inactive: 1.05
N#CC(=Cc1ccc(O)c(O)c1)C(N)=O | inactive: 0.991
COc1ccc(S(=O)(=O)N(C)C[C@@H]2OCCCC[C@H](C)Oc3ccc(NC(=O)c4ccccc4)cc3C(=O)N([C@H](C)CO)C[C@@H]2C)cc1 | inactive: 1.03
C[C@H]1CN([C@@H](C)CO)C(=O)c2cccc(NC(=O)C3CC3)c2O[C@H]1CN(C)S(=O)(=O)c1ccc(Cl)cc1 | inactive: 0.985
Cc1cn([C@H]2CC[C@@H](CO)O2)c(=O)[nH]c1=O | inactive: 0.531
